Substitutions are numbered along the chain they refer to. Like-named read-outs stand apart in the source and are kept apart here. Each block holds one binder with its values, some of them ahead of it.
Columns and labels:
M22 [1] = experiment: M22 binding ability
M22 [2] = experiment: M22 binding ability; remark: listed apart in the source

IC50 (M22 [1]): 1.3 µg/mL
B3: TR-MCD (Fc fusion)
chain: GMGCSSPPCECHQEEDFRVTCKDIQRIPSLPPSTQTLKLIETHLRTIPSHAFSNLPNISRIYVSIDVTLQQLESHSFYNLSKVTHIEIRNTRNLTYIDPDALKELPLLKFLGIFNTGLKMPDLTKVYSTDIFFILEITDNPYMTSIPVNAFQGLCNETLTLKLYNNGFTSVQGYAFNGTKLDAVYLNKNKYLTVIDKDAFGGVYSGPSLLDVSQTSVTALPSKGLEHLKELIARNTWTLKKLPLSLSFLHLTRADLSYPSHAEAAKAAEATKAAEAAAKAAKA[skipping human IgG4 Fc with S228P (EU numbers)]

IC50 (M22 [1]): 1.3 µg/mL
B4: TR-L2 (Fc fusion)
chain: B3 chain with K266A, A267K, A268E, E269A, T271A, A273E, E275A, A277K, A278E, K279A

The next lines start with the binder.

B1: TR-G8 (Fc fusion)
chain: GMGCSSPPCECHQEEDFRVTCKDIQRIPSLPPSTQTLKLIETHLRTIPSHAFSNLPNISRIYVSIDVTLQQLESHSFYNLSKVTHIEIRNTRNLTYIDPDALKELPLLKFLGIFNTGLKMPDLTKVYSTDIFFILEITDNPYMTSIPVNAFQGLCNETLTLKLYNNGFTSVQGYAFNGTKLDAVYLNKNKYLTVIDKDAFGGVYSGPSLLDVSQTSVTALPSKGLEHLKELIARNTWTLKKLPLSLSFLHLTRADLSYPSHGGGGGGGG[skipping human IgG4 Fc with S228P (EU numbers)]
IC50 (M22 [1]): 12 µg/mL

B2: TR4-Fc (Fc fusion)
chain: GMGCSSPPCECHQEEDFRVTCKDIQRIPSLPPSTQTLKLIETHLRTIPSHAFSNLPNISRIYVSIDVTLQQLESHSFYNLSKVTHIEIRNTRNLTYIDPDALKELPLLKFLGIFNTGLKMPDLTKVYSTDIFFILEITDNPYMTSIPVNAFQGLCNETLTLKLYNNGFTSVQGYAFNGTKLDAVYLNKNKYLTVIDKDAFGGVYSGPSLLDVSQTSVTALPSKGLEHLKELIARNTWTLKKLPLSLSFLHLTRADLSYPSH[skipping human IgG4 Fc with S228P (EU numbers)]
IC50 (M22 [2]): 5.6 µg/mL | IC50 (M22 [1]): 5.6 µg/mL

B5: TR-CD (Fc fusion)
chain: GMGCSSPPCECHQEEDFRVTCKDIQRIPSLPPSTQTLKLIETHLRTIPSHAFSNLPNISRIYVSIDVTLQQLESHSFYNLSKVTHIEIRNTRNLTYIDPDALKELPLLKFLGIFNTGLKMPDLTKVYSTDIFFILEITDNPYMTSIPVNAFQGLCNETLTLKLYNNGFTSVQGYAFNGTKLDAVYLNKNKYLTVIDKDAFGGVYSGPSLLDVSQTSVTALPSKGLEHLKELIARNTWTLKKLPLSLSFLHLTRADLSYPSHKARAAEAARAAEAAKAAEATKAAEAAAKAAKA[skipping human IgG4 Fc with S228P (EU numbers)]
IC50 (M22 [1]): 0.6 µg/mL

From patent US20210221869A1 (published 2021)
